In all, about 310,000 compounds went through this assay and about 14,000 (4.5%) showed an effect of 50% or more. Effects have a minus sign here. The list shows a part of the results.
target: human ether-à-go-go-related gene (hERG) potassium channel (human, UniProt Q12809); experiment: primary screen, population patch clamp on CHO cells stably expressing hERG
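Also: peak tail current of the secondary pulse compared with the same well before compound.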

Chain of human ether-à-go-go-related gene (hERG) potassium channel (Q12809 whole entry, looked up): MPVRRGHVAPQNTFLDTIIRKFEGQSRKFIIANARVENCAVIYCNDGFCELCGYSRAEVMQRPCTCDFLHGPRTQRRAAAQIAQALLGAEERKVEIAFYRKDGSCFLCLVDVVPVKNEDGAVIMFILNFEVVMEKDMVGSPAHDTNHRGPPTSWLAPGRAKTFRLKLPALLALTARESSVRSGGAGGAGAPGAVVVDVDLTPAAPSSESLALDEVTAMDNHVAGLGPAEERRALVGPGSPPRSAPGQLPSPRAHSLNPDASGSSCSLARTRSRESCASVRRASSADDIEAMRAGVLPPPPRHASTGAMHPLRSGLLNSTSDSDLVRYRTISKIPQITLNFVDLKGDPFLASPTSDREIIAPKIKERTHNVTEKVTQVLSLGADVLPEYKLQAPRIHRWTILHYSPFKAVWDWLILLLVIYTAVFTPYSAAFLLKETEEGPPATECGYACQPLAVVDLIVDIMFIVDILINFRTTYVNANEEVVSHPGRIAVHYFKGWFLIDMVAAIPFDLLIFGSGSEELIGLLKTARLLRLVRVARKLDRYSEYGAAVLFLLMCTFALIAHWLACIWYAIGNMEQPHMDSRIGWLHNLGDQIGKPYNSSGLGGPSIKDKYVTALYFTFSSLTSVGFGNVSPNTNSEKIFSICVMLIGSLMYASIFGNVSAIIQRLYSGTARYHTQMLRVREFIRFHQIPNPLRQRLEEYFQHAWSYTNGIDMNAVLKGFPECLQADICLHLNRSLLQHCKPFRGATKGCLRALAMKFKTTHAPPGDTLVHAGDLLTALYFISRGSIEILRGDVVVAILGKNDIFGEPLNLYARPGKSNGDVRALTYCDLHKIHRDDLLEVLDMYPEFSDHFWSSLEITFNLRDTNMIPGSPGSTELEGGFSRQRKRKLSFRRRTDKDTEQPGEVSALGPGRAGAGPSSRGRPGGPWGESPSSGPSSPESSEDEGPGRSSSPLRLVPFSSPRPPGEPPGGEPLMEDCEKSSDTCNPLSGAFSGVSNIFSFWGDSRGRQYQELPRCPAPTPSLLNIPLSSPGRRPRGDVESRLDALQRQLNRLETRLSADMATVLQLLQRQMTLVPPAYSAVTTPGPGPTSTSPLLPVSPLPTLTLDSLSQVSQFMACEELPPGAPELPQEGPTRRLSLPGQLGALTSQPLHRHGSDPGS

SMILES	hERG current change (%, negative = inhibition) at 10uM
O=C(NCCc1ccc(Cl)cc1)c1cc(=O)[nH]c2ccccc12	5.77%
O=C(O)c1ccc(Nc2ccc([N+](=O)[O-])c3nonc23)cc1	19.1%
CC1(C)CC(=O)C(C=Nc2ccc(O)cc2)=C(O)C1	-4.92%
O.O=C(CCc1ccc(O)cc1)c1c(O)cc(O)cc1O[C@@H]1O[C@H](CO)[C@@H](O)[C@H](O)[C@H]1O	4.04%
COc1ccccc1C(=O)Nc1ccc(C(=O)Nc2ccccc2C(=O)O)cc1	21.8%
Cc1nn(C)cc1C1C(C#N)=C(N)N(c2ccc(F)c([N+](=O)[O-])c2)C2=C1C(=O)CCC2 (centres unmarked)	11%
COc1ccc(CC(=O)OCC(=O)NCCc2ccccc2)cc1OC	-6.19%
O=C(O)CSCC(=O)Nc1ccc(Cl)cc1C(F)(F)F	6.24%
Cc1nn(CC(=O)Nc2cc(S(=O)(=O)N(C)C)ccc2Cl)c(C)c1[N+](=O)[O-]	-20.9%
CCCn1nnc(NC(=O)c2cccc(OCC(C)C)c2)n1	-3.93%
Cc1ccc(NC(=O)c2ccc(S(=O)(=O)N3CCOCC3)cc2)cc1	6.56%
CC1(C)CC(=O)c2sc(NC(=O)c3ccccc3)nc2C1	2.82%
CN(CC(O)COc1ccc2ccccc2c1)C1CCCCC1.Cl (centres unmarked)	-45.2%
CCCCN(C(=O)c1cc(S(=O)(=O)N2CCCCCC2)ccc1OC)c1ccccc1	-39%
NC(=O)CSc1nnnn1-c1ccc(OC(F)(F)F)cc1	-14.4%
CCN(CCO)Cc1cc(=O)oc2c(C)c(C)ccc12	-6.8%
CSCCC(NS(=O)(=O)c1ccccc1F)C(=O)Nc1cccc(C)n1 (centres unmarked)	-0.755%
COC(=O)c1ccc2c(c1)C(C)(C)C(/C=C/c1ccccc1O)=[N+]2C.[I-]	-69.5%
CCOC(=O)N1CCN(c2c(NCCCN(C)c3ccccc3)c(=O)c2=O)CC1	1.44%

SMILES	hERG current change (%, negative = inhibition) at 10uM
COc1cc(SC)ccc1C(=O)N1CCCCCC1	17.3%
O=C1/C(=C/c2cccc(Cl)c2)CSc2sccc21	10.1%
NS(=O)(=O)c1ccc(CNC(=O)c2cc(=O)[nH]c3ccccc23)cc1	18.3%
CCc1ccc(NC(=O)CCC(=O)Nc2nnc(C(C)C)s2)cc1	21.6%
CCCC1(C(=O)OC)NC(c2ccco2)C2C(=O)N(C)C(=O)C21 (centres unmarked)	8.64%
Cc1cccc(Cn2cnc3c(nnn3Cc3ccc(F)cc3)c2=O)c1	-10.6%
CN(Cc1cn(-c2ccccc2)nc1-c1cc2ccccc2o1)C(=O)CCC(=O)O	1.91%
O=C(c1ccco1)N1CCN(Cc2cc(=O)c(OCc3c(F)cccc3Cl)co2)CC1	-58%
CCCCCC(=O)N(O)C1CC(=O)N(c2ccccc2)C1=O (centres unmarked)	9.06%
Cc1cccc(NC(=O)CC2C(=O)NCCN2C(=S)Nc2ccccc2)c1 (centres unmarked)	1.17%
Cc1ncc(CN2CCCC(C(=O)c3cccc(Cl)c3)C2)s1 (centres unmarked)	-13.6%
CCC(=O)N(CCC(Cc1ccccc1)c1ccco1)Cc1ccco1 (centres unmarked)	-1.81%
CC(C)Cc1ccc(CN2CCCC(NC(=O)CCN3CCCO3)C2)cc1 (centres unmarked)	-43.4%
Cc1ccc(C(=O)NCCNC(=O)c2ccco2)cn1	16.4%
CSCCC(C(=O)N1CC2(C)CC1CC(C)(C)C2)N1C(=O)c2ccccc2C1=O (centres unmarked)	-24.8%
C/C(CC(=O)Nc1ccc(Br)cc1)=N\NC(=O)c1cccc(O)c1	-4.77%
CC(C)(C)NC(=O)NC(=O)CN1CCN(C(c2ccccc2)c2ccccc2)CC1	-5.23%
O=C(CN1C(=O)N/C(=C\c2ccccc2OCc2ccc(C(=O)O)cc2)C1=O)Nc1ccccc1F	-15.8%
O=C(NCc1ccco1)Nc1ccc(OC(F)(F)F)cc1	-18%

SMILES	hERG current change (%, negative = inhibition) at 10uM
CCC(=O)Nc1cccc(NC(=O)CN2CCN(c3ccccc3OC)CC2)c1	-1.45%
COc1ccc(/C=C(\C#N)C(=O)OCC(=O)Nc2c(C)cccc2C)cc1	0.785%
Cc1ccc2sc(N(CCCN(C)C)C(=O)c3ccc(Br)s3)nc2c1C.Cl	-71.7%
CCOCCCNC(=S)NCCCNc1nc2ccc(C)cc2cc1C#N	10.6%
CCOC(=O)N1CCN(C(=O)CSc2nc(=O)n3ccc(C)cc3n2)CC1	5.4%
CN(C)CC#CCOCCOCCC#N	15.2%
O=C(CO/N=C1\CCCc2nonc21)Nc1ccccc1Cl	-10.4%
CCS(=O)(=O)c1nc(S(=O)(=O)c2ccc(C)cc2)c(N2CCCC(C)C2)s1 (centres unmarked)	2.07%
Cc1ccccc1-n1c(=O)cc(N2CCC3(CC2)OCCO3)[nH]c1=O	8.66%
CC(C)C1CC(CCN)(Cc2ccccc2)CCO1.Cl (centres unmarked)	4.39%
CN(C)/C(=N\OC(=O)c1ccccc1)c1nonc1N	4.43%
Cc1ccccc1NS(=O)(=O)c1cc(C(=O)Nc2cccc([N+](=O)[O-])c2)ccc1C	-5.23%
COc1ccc(-c2noc(CCC(=O)NC3CCCC3)n2)cc1	-4.15%
CCc1nnc(NC(=O)CSc2nnc(-c3c[nH]c4ccccc34)n2CC)s1	-20.3%
CCOC(=O)N1CCN(C(=O)C2CCN(CC3CCCCC3)CC2)CC1.O=C(O)C(=O)O	-0.91%
Cc1ccccc1C1CC(=O)NC2=C1C(=O)CCC2 (centres unmarked)	17.5%
CC(C)(C)c1ncc(S(=O)(=O)c2ccc(C(F)(F)F)cn2)c(N)n1	3.41%
CC1CC(C)CN(CCCNC(=O)c2cc3c(s2)-c2ccccc2OC3)C1 (centres unmarked)	-70.2%

Reference: article PMC4336329 (PLoS ONE, 2015)
